{
  "source": "PubChem BioAssay AID1745845",
  "about": "(National Center for Advancing Translational Sciences (NCATS), 2022)",
  "note": "Out of some 360,000 compounds screened, about 2,600 (0.72%) were called active. Inconclusive means that the source gave no clear call. Such entries were picked first, then a sample of the others. Calls follow the shape of the dose curve; as a rule, active = well fitted inhibition curve with a large enough effect; inconclusive = small, poorly fitted or top-dose-only effect; inactive = no such curve, though single readings can be large or run the other way. A potency beside an inconclusive call is a rough fit, not a confirmed value. % is scaled to controls: 0 for no effect and ±100 for the full control effect; potency is read from the fitted curve at half-maximal effect; tags tell the direction and shape of the fitted curve.",
  "data": [
    {"assay": "Primary qHTS for Inhibitors of ATXN expression; also: nearly all actives have a fitted effect of over 55% in size", "details": "HEK-293 ATXN2-luciferase reporter, luminescence, 24 h; activity change, negative = inhibition: at 57 µM (top of the series)", "summary_of_the_method": "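qHTS (up to 57 uM final) was run with 24 h compound exposure of reporter cells at 37 °C. Each well was multiplexed: SteadyGlo luminescence measured ATXN2-luciferase expression after a fluorogenic Gly-Phe-AFC viability readout (25 uM final).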", "values": [
      {"smiles": "Cc1cc(Cl)ccc1C(=O)C1CCCN(C(=O)c2cc(C(C)C)no2)C1", "note": "(stereo unspecified)", "activity change, negative = inhibition": "inactive: -4.14%"},
      {"smiles": "Cc1cccc(N2CCN(C(=O)CS(=O)(=O)c3cccc4nsnc34)CC2)c1C", "activity change, negative = inhibition": "inactive: 2.64%"},
      {"smiles": "Cc1ccccc1N1CC(=O)N(c2ccccc2C)CC1=O", "activity change, negative = inhibition": "inactive: -0.851%"},
      {"smiles": "O=C(NCCCCN1CCOCC1)c1cc2ccccc2o1", "activity change, negative = inhibition": "inactive: 12.6%"},
      {"smiles": "C#CCSc1nncn1C(=O)/C=C/c1ccccc1", "activity change, negative = inhibition": "inactive: 3.58%"},
      {"smiles": "CCCCc1ccc(NC(=O)c2cnccn2)cc1", "Potency": "inconclusive: 37.7 µM [inhibitor, single point]"},
      {"smiles": "COc1ccc(CC(N)c2csc(Nc3cc(NCc4ccco4)ncn3)n2)cc1", "note": "(stereo unspecified)", "Potency": "inconclusive: 28.2 µM [inhibitor, partial curve]"},
      {"smiles": "COc1cc(OC)cc(C(=O)Nc2nc(-c3ccccc3)c(-c3ccccc3)o2)c1", "Potency": "inconclusive: 1.41 µM [inhibitor, full curve]"},
      {"smiles": "COc1ccc(C(C(=O)NC2CCCCC2)N(C(=O)CCl)c2ccc(OC)cc2)cc1", "note": "(stereo unspecified)", "Potency": "active: 3.55 µM"},
      {"smiles": "COc1ccc(-c2cc(C(F)(F)F)nc(N3CCN(C)CC3)n2)cc1", "Potency": "inconclusive: 28.2 µM [inhibitor, partial curve, poor fit]"},
      {"smiles": "Nn1c(CSc2nc3ccccc3o2)nnc1CSc1nc2ccccc2o1", "activity change, negative = inhibition": "inactive: -0.684%"},
      {"smiles": "CSc1ccccc1C(=O)N(C)C(c1ccccc1)c1ccccc1", "Potency": "inconclusive: 8.91 µM [inhibitor, partial curve, poor fit]"},
      {"smiles": "O=C(NCc1ccccc1)c1cccc(COc2ccccc2Cl)c1", "activity change, negative = inhibition": "inactive: 1.02%"},
      {"smiles": "O=C(NCCOc1ccccc1)c1ccc2c(c1)OCO2", "Potency": "active: 4.47 µM"},
      {"smiles": "Cn1cc(CN(CCCN2CCOCC2)C(=S)Nc2cccc(Cl)c2)c2ccccc21", "Potency": "inconclusive: 5.62 µM [inhibitor, partial curve, poor fit]"},
      {"smiles": "CSc1ncc(Cl)c(C(=O)Nc2ccc(S(=O)(=O)Nc3nccc(C)n3)cc2)n1", "Potency": "inactive"},
      {"smiles": "O=C(NCCN1CCN(c2cccc(Cl)c2)CC1)c1ccc(CSc2nc3ccncc3[nH]2)cc1", "Potency": "inconclusive: 17.8 µM [inhibitor, single point]"},
      {"smiles": "Cc1ccc(C)c(-n2cc(CNCCCn3cccn3)c(-c3ccccc3)n2)c1", "Potency": "inconclusive: 17.8 µM [inhibitor, partial curve, poor fit]"},
      {"smiles": "CCn1c(=O)cc(OCC(=O)NCc2ccccc2OC)c2ccccc21", "Potency": "inconclusive: 39.8 µM [inhibitor, single point]"},
      {"smiles": "Cc1cc(OCc2cc(C(=O)NCCN3CCCCC3CO)no2)cc(C)c1Cl", "note": "(stereo unspecified)", "Potency": "inconclusive: 22.4 µM [inhibitor, single point]"},
      {"smiles": "CC(NC(=S)Nc1ccccc1OC(F)F)C(C)(C)C", "note": "(stereo unspecified)", "activity change, negative = inhibition": "inactive: -2.76%"}
    ]}
  ]
}
